From PubChem BioAssay AID2675 (National Center for Advancing Translational Sciences (NCATS), 2010)
Hit rate of the full screen: of about 280,000 compounds, about 100 (0.036%) were called active. Inconclusive results, whose numbers are uncertain, are shown with a selection of clear calls. Calls come from the whole dose curve; as a rule, active = well fitted inhibition curve with a large enough effect in the signal ratio, with a control signal flat (not every such curve was filed as active); inconclusive = small, poorly fitted or top-dose-only effect, or effect the other way, or a change in a side signal; inactive = no such curve, though single readings can be large or run the other way; the % refers to the signal ratio. A potency beside an inconclusive call is a rough fit, not a confirmed value. A note “side channel” means that the fit belongs to a control or component signal, not to the main read-out.

Target: Muscleblind-like protein 1 (Homo sapiens) (UniProt Q9NR56)
Assay: qHTS Assay for Inhibitors of MBNL1-poly(CUG) RNA binding
Conditions: TR-FRET MBNL1-His/biotin-(CUG)12 binding, 665/545 ratio; activity change, negative = inhibition: at 57.5 µM (top of the series)
How it was run: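 Compounds (final 92 nM to 58 uM) are added to His-tagged MBNL1 and biotin-(CUG)12, then terbium anti-His antibody and streptavidin-XL665 (5 nM final). After 60 min at room temperature, the 665/545 nm ratio is read.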
% is set by controls: 0 for no effect and ±100 for the full control effect; potency is the fitted concentration of half-maximal effect; tags give direction and shape of the fitted curve or compound fluorescence and quenching.

UniProt Q9NR56, sequence (Q9NR56 whole entry, looked up): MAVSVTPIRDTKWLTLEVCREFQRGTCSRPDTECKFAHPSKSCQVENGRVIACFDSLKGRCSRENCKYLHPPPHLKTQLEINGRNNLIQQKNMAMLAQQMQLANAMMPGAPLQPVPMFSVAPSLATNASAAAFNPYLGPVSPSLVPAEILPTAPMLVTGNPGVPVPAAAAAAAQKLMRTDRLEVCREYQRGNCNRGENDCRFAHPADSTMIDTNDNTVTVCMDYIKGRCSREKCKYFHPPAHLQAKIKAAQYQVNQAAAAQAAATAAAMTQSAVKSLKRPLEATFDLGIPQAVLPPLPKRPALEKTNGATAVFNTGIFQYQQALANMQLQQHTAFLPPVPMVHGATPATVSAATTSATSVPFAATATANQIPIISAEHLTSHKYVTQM

Q: How did the Potency turn out when Cc1ccc(Sc2nc(-c3ccccc3)nnc2C(F)(F)F)cc1 was run?
A: inconclusive: 3.98 µM [fluorescent, side channel, partial curve]

Q: How did the Potency turn out when NC(=O)CC(NC(=O)c1ccccc1)c1ccc(NCc2ccc(F)c(F)c2)c([N+](=O)[O-])c1 (configuration not stated) was run?
A: inconclusive: 7.94 µM [quencher, side channel, partial curve]

Q: For CN(C)c1ccnc2sc3c(NCC(O)CO)ncnc3c12 (configuration not stated), which Potency is on record?
A: inconclusive: 0.398 µM [fluorescent, side channel, full curve, poor fit]

Q: How did the Potency turn out when O=C(O)CCN1CC2([N+](=O)[O-])C=CC(=O)C([N+](=O)[O-])(C1)C2CC(=O)c1ccccc1 (configuration not stated) was run?
A: inconclusive: 3.98 µM [quencher, side channel, full curve]

Q: How did the Potency turn out when COc1ccc(C(=O)NCc2ccc3[nH]c(C)cc3c2)cc1OC was run?
A: inconclusive: 39.8 µM [quencher, single point]

Q: For Cc1cc2cc(C(c3nnnn3CC3CCCO3)N3CCCc4ccccc43)c(=O)[nH]c2cc1C (configuration not stated), which Potency is on record?
A: inconclusive: 15.8 µM [quencher, side channel, partial curve]

Q: How did the Potency turn out when COc1ccc(/C=N/N=C2/CC(C)(C)Cc3n[nH]c(=O)cc32)cc1 was run?
A: inconclusive: 14.1 µM [quencher, side channel, partial curve]

Q: Which Potency does the source give for COc1ccc(N=c2cc(-c3ccc(O)cc3)oc3ccccc23)cc1 here?
A: inconclusive: 39.8 µM [quencher, side channel, single point]

Q: Which Potency does the source give for O=C(O)CC1S/C(=N\N=C2\C(=O)Nc3ccccc32)N(c2ccc(O)cc2)C1=O (configuration not stated) here?
A: inconclusive: 15.8 µM [quencher, side channel, partial curve]

Q: For CCOC(=O)C1C(=O)C=C(c2ccc(C)cc2)CC1c1ccco1 (configuration not stated), which Potency is on record?
A: inconclusive: 17.8 µM [quencher, side channel, partial curve]

Q: Which “activity change, negative = inhibition” value does the source give for OCC1(Cc2cccc(Cl)c2)CCCN(Cc2ccc(F)c(F)c2)C1 (configuration not stated) here?
A: inactive: -0.27%

Q: How did the Potency turn out when COc1cc([N+](=O)[O-])ccc1NC(=O)Cn1ccsc1=N was run?
A: inconclusive: 11.2 µM [quencher, side channel, partial curve]

Q: For Cc1ccc(-c2nnn(CC(=O)N(CC3CCCO3)C(C(=O)NC(C)(C)C)c3ccc(F)cc3)n2)o1 (configuration not stated), which Potency is on record?
A: inconclusive: 5.62 µM [quencher, side channel, full curve]

Q: For S=C(NCCc1ccccc1)Nc1cccc2cnccc12, which Potency is on record?
A: inconclusive: 25.1 µM [quencher, side channel, partial curve]

Q: COc1cccc(/C=N/Nc2ccc(S(=O)(=O)O)cc2)c1O was tested. Which “activity change, negative = inhibition” value did it give?
A: inactive: 7.18%

Q: Which “activity change, negative = inhibition” value does the source give for CC(C)[C@H](NC(=O)N1CC(=O)Nc2ccccc21)C(=O)N[C@H](C(=O)O)c1ccccc1 here?
A: inactive: 0.503%

Q: How did the “activity change, negative = inhibition” value turn out when OC(COc1ccc(Cl)cc1)CN1C2=NCCCN2c2ccccc21 (configuration not stated) was run?
A: inactive: -10.4%

Q: CCOc1ccc(-c2nnc(-c3ccc(OC)cc3)o2)cc1 was tested. Which Potency did it give?
A: inconclusive: 39.8 µM [inhibitor, single point]

Q: How did the “activity change, negative = inhibition” value turn out when O=C(O)c1ccc(/C=N/Nc2cccc(C(F)(F)F)c2)cc1 was run?
A: inactive: 7.83%

Q: With O=C(CSc1nc2ccccc2nc1SCC(=O)N1CCOCC1)N1CCOCC1 as the compound, how does the Potency read?
A: inconclusive: 28.2 µM [quencher, side channel, partial curve]

Q: For CSCC[C@H](NC(=O)COc1ccc(Cl)cc1)c1nc2ccccc2[nH]1, which Potency is on record?
A: inconclusive: 8.91 µM [quencher, side channel, single point]

Q: COc1cc([N+](=O)[O-])c2ncsc2c1 was tested. Which Potency did it give?
A: inconclusive: 12.6 µM [quencher, side channel, partial curve]

Q: Nc1cc([N+](=O)[O-])cc2oc(-c3ccccc3)cc12 was tested. Which Potency did it give?
A: inconclusive: 14.1 µM [quencher, partial curve]

Q: How did the “activity change, negative = inhibition” value turn out when CCOc1ccccc1N1CCN(C(=O)c2cc(-c3cc(OC)ccc3OC)nc3ccccc23)CC1 was run?
A: inactive: 7.39%

Q: COCCn1cc(C(=O)NCc2cccs2)c2c3ccccc3n(C)c2c1=O was tested. Which Potency did it give?
A: inconclusive: 39.8 µM [quencher, side channel, single point]

Q: How did the “activity change, negative = inhibition” value turn out when N/C(=N\OC(=O)c1cccc(F)c1)c1ccccc1 was run?
A: inactive: 9.85%

Q: With Nc1[nH][nH]c(=O)c1N=Nc1cccc(Cl)c1 as the compound, how does the Potency read?
A: inconclusive: 12.6 µM [quencher, side channel, partial curve]

Q: Which Potency does the source give for Cc1ccc(Cl)c(NC(=O)COC(=O)c2ccccc2C(=O)c2ccc(Cl)c([N+](=O)[O-])c2)c1Cl here?
A: inconclusive: 14.1 µM [quencher, side channel, partial curve, poor fit]

Q: Cc1cc(Cl)n2c(nc3cc(F)c(F)cc32)c1C#N was tested. Which “activity change, negative = inhibition” value did it give?
A: inactive: 11.9%

Q: Cc1ccc(CNC(=O)CCNS(=O)(=O)c2cccc3nsnc23)cc1 was tested. Which Potency did it give?
A: inconclusive: 12.6 µM [quencher, side channel, partial curve]

Q: How did the Potency turn out when O=S(=O)(NCCc1ccccc1)c1cccc2nsnc12 was run?
A: inconclusive: 14.1 µM [quencher, side channel, partial curve]

Q: C=CCOc1c(OC)cc(/C=N/Nc2cccc(C(=O)O)c2)c(Br)c1Br was tested. Which “activity change, negative = inhibition” value did it give?
A: inactive: 10.5%

Q: Which “activity change, negative = inhibition” value does the source give for NC(=S)N=Nc1c(O)[nH]c2c(Br)cc(Br)cc12 here?
A: inactive: 5.9%

Q: How did the Potency turn out when Nc1nc(O)c(N=Nc2ccc(S(N)(=O)=O)cc2)c(=O)[nH]1 was run?
A: inconclusive: 3.16 µM [quencher, side channel, full curve]

Q: Which Potency does the source give for COc1ccc(/C=N/Nc2nc(-c3cccnc3)nc3ccccc23)cc1OC here?
A: inconclusive: 25.1 µM [quencher, side channel, partial curve]

Q: Which Potency does the source give for CC(=O)COc1ccc2c(-c3ccccc3)cc(=O)oc2c1C here?
A: inconclusive: 15.8 µM [quencher, side channel, partial curve]

Q: Cc1nc(CCNC(=O)CC2C(=O)NCCN2Cc2ccoc2)nc2c1CCCC2 (configuration not stated) was tested. Which Potency did it give?
A: inconclusive: 6.31 µM [fluorescent, side channel, single point]

Q: With Cc1[nH]n(-c2ccccc2)c(=O)c1C(=O)c1ccccc1 as the compound, how does the “activity change, negative = inhibition” value read?
A: inactive: -5.95%

Q: How did the Potency turn out when CCN(CC)CC(=O)N1c2ccccc2Oc2c(c(=O)n(C)c(=O)n2C)C1c1cccc([N+](=O)[O-])c1 (configuration not stated) was run?
A: inconclusive: 25.1 µM [quencher, side channel, partial curve]

Q: Which Potency does the source give for O=C(CC1C(=O)NCCN1Cc1ccoc1)NCCCn1ncc2ccccc21 (configuration not stated) here?
A: inconclusive: 3.98 µM [inhibitor, single point]

Q: Which Potency does the source give for CCNc1ccc(C(=O)OCC(=O)NCCN2C(=O)CSC2=O)cc1[N+](=O)[O-] here?
A: inconclusive: 14.1 µM [quencher, side channel, partial curve]

Q: How did the “activity change, negative = inhibition” value turn out when CCc1c(C(=O)NNC(=S)NC2CCCCC2)csc1C was run?
A: inactive: -1.03%

Q: Cc1nc(SCC(=O)c2cccc([N+](=O)[O-])c2)n[nH]1 was tested. Which Potency did it give?
A: inconclusive: 8.91 µM [quencher, side channel, partial curve]

Q: How did the Potency turn out when COc1ccccc1N1C(=O)CC(N2CCc3ccccc32)C1=O (configuration not stated) was run?
A: inconclusive: 17.8 µM [quencher, side channel, partial curve]

Q: How did the “activity change, negative = inhibition” value turn out when COC(=O)COc1ccc2occ(C(C)=O)c2c1 was run?
A: inactive: -2.41%

Q: With C/C(Cn1nc([N+](=O)[O-])cc1C)=N\NC(=O)COc1ccccc1[N+](=O)[O-] as the compound, how does the Potency read?
A: inconclusive: 39.8 µM [quencher, side channel, single point]

Q: With O=C1CCN(Cc2ccc([N+](=O)[O-])cc2)CCN1CCO as the compound, how does the Potency read?
A: inconclusive: 15.8 µM [quencher, side channel, partial curve]

Q: For O=C(c1ccc([N+](=O)[O-])cc1)N1CCN(Cc2ccccc2)CC1, which Potency is on record?
A: inconclusive: 14.1 µM [quencher, side channel, partial curve]

Q: c1ccc(CSc2nnc3ccc(-c4cccs4)nn23)nc1 was tested. Which Potency did it give?
A: inconclusive: 15.8 µM [quencher, side channel, partial curve]

Q: Which Potency does the source give for CCOC(=O)C1CCN(C2=NC(=O)/C(=C/c3ccccc3OC)S2)CC1 here?
A: inconclusive: 12.6 µM [quencher, side channel, partial curve]

Q: How did the Potency turn out when O=C(NNC(=O)C1CC2CCC1C2)c1sc2ccccc2c1Cl (configuration not stated) was run?
A: inconclusive: 17.8 µM [quencher, side channel, single point]

Q: COc1ccc(CCC(=O)NCCS(=O)(=O)N2CCN(c3ccccc3OC)CC2)cc1 was tested. Which “activity change, negative = inhibition” value did it give?
A: inactive: -4.14%

Q: Which Potency does the source give for COc1ccc(NC(=O)NCc2ccccc2F)cc1OC here?
A: inconclusive: 100 µM [inhibitor, single point]

Q: For Cc1nn(C)c(C)c1CN(Cc1nc(-c2ccc(F)cc2F)oc1C)C1CC1, which “activity change, negative = inhibition” value is on record?
A: inactive: 12.2%

Q: With COC(=O)CSC1=C(C#N)C(c2ccccc2)CC(=O)N1 (configuration not stated) as the compound, how does the “activity change, negative = inhibition” value read?
A: inactive: 0.497%

Q: How did the Potency turn out when NC(=O)COc1ccc(Nc2nnc(-c3ccc(O)cc3)c3ccccc23)cc1 was run?
A: inconclusive: 22.4 µM [quencher, side channel, single point]

Q: For COc1ccc(-c2nc(C#N)c(NCC3CCCO3)o2)cc1 (configuration not stated), which Potency is on record?
A: inconclusive: 3.55 µM [quencher, side channel, single point]

Q: For CCN(Cc1nc(-c2cccc(C)c2)no1)C(=O)c1ccc2c(c1)OCO2, which “activity change, negative = inhibition” value is on record?
A: inactive: -7.43%

Q: For Cc1ccc2cc3c(NS(=O)(=O)c4cccc5nonc45)nn(CC(C)C)c3nc2c1, which Potency is on record?
A: inconclusive: 20 µM [quencher, single point]

Q: With COc1ccc(C(=O)ON=C2CCN(c3ccc([N+](=O)[O-])cc3)CC2)cc1 as the compound, how does the Potency read?
A: inconclusive: 28.2 µM [quencher, side channel, partial curve]

Q: How did the “activity change, negative = inhibition” value turn out when COc1ccc2nc(/N=C/c3c(C)[nH]n(-c4ccc(C)cc4)c3=O)sc2c1 was run?
A: inactive: 1.68%

Q: For O=C(Cn1ncc2c3ccccc3n(Cc3ccccc3F)c2c1=O)N1CCN(c2ccccn2)CC1, which “activity change, negative = inhibition” value is on record?
A: inactive: 11.4%
